Test [1] addresses T1, Del322-325 alpha-2CAR (Homo sapiens, UniProt P18825, DEL324-327/L239R/R446P/S401I).
T1 sequence (P18825 with tags, fused parts or gaps L239R/DEL324-327/S401I/R446P): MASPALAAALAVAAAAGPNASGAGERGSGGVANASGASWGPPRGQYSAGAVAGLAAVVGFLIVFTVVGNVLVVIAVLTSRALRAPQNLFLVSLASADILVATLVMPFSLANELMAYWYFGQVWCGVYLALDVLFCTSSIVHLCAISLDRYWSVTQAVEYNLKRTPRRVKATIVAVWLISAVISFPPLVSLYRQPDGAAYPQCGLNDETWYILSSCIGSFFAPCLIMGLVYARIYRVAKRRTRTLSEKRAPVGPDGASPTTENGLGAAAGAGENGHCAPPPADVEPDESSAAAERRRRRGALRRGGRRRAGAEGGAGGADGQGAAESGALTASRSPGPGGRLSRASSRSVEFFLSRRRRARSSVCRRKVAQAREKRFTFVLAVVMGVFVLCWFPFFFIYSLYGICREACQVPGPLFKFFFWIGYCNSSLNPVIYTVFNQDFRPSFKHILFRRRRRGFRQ
To be noted: CHO line expressing 1520 ± 27.6 fmol/mg.

Test [2] addresses T2, Del301-303 alpha-2BAR (Homo sapiens, UniProt P18089, DEL307-309).
T2 sequence (P18089 with tags, fused parts or gaps DEL307-309): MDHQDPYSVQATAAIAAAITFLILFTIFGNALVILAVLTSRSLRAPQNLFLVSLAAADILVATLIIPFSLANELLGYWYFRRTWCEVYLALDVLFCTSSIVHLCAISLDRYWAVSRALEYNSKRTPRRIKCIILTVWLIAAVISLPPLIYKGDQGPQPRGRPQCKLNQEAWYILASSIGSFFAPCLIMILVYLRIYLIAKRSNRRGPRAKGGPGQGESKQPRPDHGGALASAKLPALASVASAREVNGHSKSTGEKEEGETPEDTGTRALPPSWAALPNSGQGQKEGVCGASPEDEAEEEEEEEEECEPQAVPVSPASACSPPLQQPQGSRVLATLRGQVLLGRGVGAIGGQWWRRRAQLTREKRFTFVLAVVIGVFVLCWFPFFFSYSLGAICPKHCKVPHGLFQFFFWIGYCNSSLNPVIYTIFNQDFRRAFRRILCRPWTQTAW
Put plainly: biochemical.

The target in test [3] is T2, Del301-303 alpha-2BAR.
The target of test [4] is T1, Del322-325 alpha-2CAR. Briefly: biochemical.

The source of these data is patent US7572603B2, “Alpha-2 adrenergic receptor polymorphisms” (University of Cincinnati, priority 2000, dated 2009).

Where two headings read alike, the source gives them in different places.

Turning to `CCN1CCc2nc(N)oc2CC1` [BHT-933], on Del322-325 alpha-2CAR [1], the “Max Inhibition (%) of adenylyl cyclase” value was determined as 26.7 ± 2.40%. Moreover, the concentration for a half-maximal effect (EC50) at Del322-325 alpha-2CAR [1] (read-out: EC50 (nM) adenylyl cyclase inhibition) turned out to be 4080 ± 2000 nM.

For `N=C(N)N/N=C/c1c(Cl)cccc1Cl` [guanabenz], the “Max Inhibition (%) of adenylyl cyclase” value at Del322-325 alpha-2CAR [1] is recorded as 30.0 ± 1.98%.

With `NC[C@H](O)c1ccc(O)c(O)c1` [norepinephrine], the concentration giving a half-maximal response (EC50) on Del301-303 alpha-2BAR [2] came out at 19.6 ± 5.5 nM; at Del322-325 alpha-2CAR [4] it was 224 ± 70.7 nM. The “Submax inhibition % Ctrl” value on Del301-303 alpha-2BAR [3] (at the EC50 of control membranes, cells pretreated with media alone) is on record as 17.1±3.0%. In addition, the “Max Inhibition of forskolin-stimulated adenylyl cyclase” value on Del301-303 alpha-2BAR [3] (receptor density 520±82 fmol/mg) is listed as 23.4±2.2%. The “Max Inhibition (%) of adenylyl cyclase” value at Del322-325 alpha-2CAR [1] turned out to be 34.9 ± 0.887%.

Turning to `Cc1cc(C(C)(C)C)c(O)c(C)c1CC1=NCCN1` [oxymetazoline], the “Max Inhibition (%) of adenylyl cyclase” value on Del322-325 alpha-2CAR [1] was found to be 12.8 ± 1.40%.
